# Measured values reported in the antibiotic and cytotoxicity screens of Wong et al. (2023).
# The other results are listed elsewhere or left out.
# Assays:
# HSkMC = human skeletal muscle cells; assay: cytotoxicity call (relative viability < 0.9); conditions: 10 µM
# HepG2 = assay: cytotoxicity call (relative viability < 0.9); conditions: 10 µM
# S. aureus RN4220 = assay: growth inhibition call (relative growth <= 0.2); conditions: 50 µM
Compound,cytotoxicity call (HSkMC),cytotoxicity call (HepG2),growth inhibition call (S. aureus RN4220)
NNC(=O)CCCCCC(=O)NO,inactive,inactive,inactive
COc1ccc(CN(C)C[C@@H]2OCCCC[C@@H](C)Oc3ccc(NC(=O)CCC(F)(F)F)cc3C(=O)N([C@@H](C)CO)C[C@H]2C)cc1,inactive,inactive,inactive
C[C@H](NC(=O)N(C)C[C@H]1OCc2ccccc2-c2c(n(C)c3ccccc23)C(=O)N([C@H](C)CO)C[C@@H]1C)c1ccccc1,inactive,inactive,inactive
O=C1C(=O)N(C[C@@H](O)COc2cccc3ccccc23)C(=O)C(=O)N1C[C@@H](O)COc1cccc2ccccc12,inactive,inactive,inactive
C[C@@H]1CCCCO[C@H](CN(C)Cc2ccc(C(F)(F)F)cc2)[C@@H](C)CN([C@@H](C)CO)C(=O)c2cc(NC(=O)CCCN(C)C)ccc2O1,inactive,active,inactive
C[C@H]1CCCCO[C@@H](CN(C)Cc2ccncc2)[C@@H](C)CN([C@@H](C)CO)C(=O)c2cc(NC(=O)Nc3cccc4ccccc34)ccc2O1,inactive,inactive,inactive
COCC#Cc1ccc2c(c1)O[C@@H](CN(C)C(=O)c1ccccc1F)[C@H](C)CN([C@H](C)CO)S2(=O)=O,inactive,inactive,inactive
C[C@@H]1CN([C@@H](C)CO)C(=O)c2cc(C3=CCCC3)cnc2O[C@@H]1CN(C)C(=O)Nc1ccc(C(F)(F)F)cc1,inactive,inactive,inactive
COc1ccc(S(=O)(=O)N(C)C[C@@H]2Oc3ccc(NC(=O)Nc4cccc(C(F)(F)F)c4)cc3CC(=O)N([C@@H](C)CO)C[C@@H]2C)cc1Cl,active,active,inactive
C=CCNC(=O)[C@H]1[C@@H]2C(=O)O[C@@H](c3ccccc3)[C@@H](c3ccccc3)N2[C@@H](c2ccccc2OCCO)[C@]12C(=O)N(C(=O)OCCOC)c1ccc(C#Cc3ccc(OC)cc3)cc12,inactive,inactive,inactive
COc1ccc(NC(=O)Nc2ccc3c(c2)C(=O)N([C@H](C)CO)C[C@@H](C)[C@@H](CN(C)C(=O)NC2CCCCC2)OCCCC[C@@H](C)O3)cc1,inactive,inactive,inactive
CC(C)NC(=O)N(C)C[C@@H]1OCCCC[C@@H](C)Oc2ccc(NS(C)(=O)=O)cc2C(=O)N([C@H](C)CO)C[C@@H]1C,inactive,inactive,inactive
Cc1noc(C)c1S(=O)(=O)Nc1ccc2c(c1)CC(=O)N([C@@H](C)CO)C[C@@H](C)[C@H](CN(C)Cc1ccc(-c3ccccc3)cc1)O2,active,inactive,inactive
C[C@H]1CN([C@@H](C)CO)C(=O)c2c(c3ccccc3n2C)-c2ccccc2CO[C@H]1CN(C)Cc1ccc(O)cc1,inactive,inactive,inactive
COc1ccc(NC(=O)Nc2ccc3c(c2)C(=O)N([C@@H](C)CO)C[C@@H](C)[C@@H](CN(C)S(=O)(=O)c2ccc(C)cc2)OCCCC[C@@H](C)O3)cc1,inactive,inactive,inactive
Cc1noc(C)c1NC(=O)Nc1ccc2c(c1)C(=O)N([C@@H](C)CO)C[C@H](C)[C@H](CN(C)S(=O)(=O)c1cccs1)OCCCC[C@@H](C)O2,inactive,inactive,inactive
COc1ccc(S(=O)(=O)Nc2ccc3c(c2)C(=O)N([C@H](C)CO)C[C@H](C)[C@@H](CN(C)C(=O)Nc2ccc(C(F)(F)F)cc2)OCCCC[C@@H](C)O3)cc1,inactive,inactive,inactive
C[C@@H]1CCCCO[C@@H](CN(C)Cc2ccc(C(F)(F)F)cc2)[C@@H](C)CN([C@H](C)CO)C(=O)c2cc(NS(C)(=O)=O)ccc2O1,inactive,inactive,inactive
C[C@@H]1CN([C@@H](C)CO)C(=O)c2cccc(NC(=O)c3nc4ccccc4s3)c2O[C@H]1CN(C)Cc1ccc(C(F)(F)F)cc1,inactive,inactive,inactive
C[C@@H]1CN([C@H](C)CO)C(=O)Cc2cc(NC(=O)Nc3ccc(C(F)(F)F)cc3)ccc2O[C@H]1CN(C)Cc1ccc(Cl)c(Cl)c1,active,inactive,inactive
C[C@@H]1CN([C@@H](C)CO)C(=O)Cc2cc(NC(=O)C3CC3)ccc2O[C@@H]1CN(C)C(=O)Nc1ccc2c(c1)OCO2,inactive,inactive,inactive

Compound,cytotoxicity call (HSkMC),cytotoxicity call (HepG2),growth inhibition call (S. aureus RN4220)
C[C@@H]1CN([C@@H](C)CO)C(=O)c2cc(NC(=O)Nc3cccc4ccccc34)ccc2O[C@@H](C)CCCCO[C@H]1CN(C)Cc1ccc2c(c1)OCO2,active,active,inactive
COCC(=O)N1C[C@H](C)[C@@H](OC)CN(C)C(=O)c2ccc(NC(=O)Nc3cccc(F)c3)cc2OC[C@H]1C,inactive,inactive,inactive
C[C@@H]1CN([C@H](C)CO)C(=O)Cc2cc(NS(C)(=O)=O)ccc2O[C@H]1CN(C)C(=O)Nc1ccccc1,inactive,inactive,inactive
O=C(O)C1CCC1,inactive,inactive,inactive
Fc1ccc(-n2cccc2)c(F)c1,inactive,inactive,inactive
C[C@@H]1CCCCO[C@H](CN(C)C(=O)C2CCCCC2)[C@@H](C)CN([C@H](C)CO)C(=O)c2cc(NS(=O)(=O)c3ccc(F)cc3)ccc2O1,inactive,inactive,inactive
CS(=O)(=O)c1ccc(C#N)cc1,inactive,inactive,inactive
C[C@@H]1CCCCO[C@@H](CN(C)CC2CCCCC2)[C@@H](C)CN([C@H](C)CO)C(=O)c2cc(NS(=O)(=O)c3ccc(Cl)cc3)ccc2O1,inactive,inactive,inactive
O=C1CN(S(=O)(=O)Cc2ccccc2)C[C@@H]2[C@H](c3ccc(C#Cc4ccc(F)cc4)cc3)[C@@H](CO)N12,inactive,inactive,inactive
COc1cccc(NC(=O)N(C)C[C@H]2OCc3ccccc3-c3c(n(C)c4ccccc34)C(=O)N([C@H](C)CO)C[C@H]2C)c1,inactive,inactive,inactive
COc1ccc(S(=O)(=O)Nc2ccc3c(c2)CC(=O)N([C@H](C)CO)C[C@@H](C)[C@H](CN(C)S(=O)(=O)c2ccccc2)O3)cc1,inactive,inactive,inactive
O=C1O[C@@H](c2ccccc2)[C@@H](c2ccccc2)N2[C@@H](c3ccc(OCCO)cc3)[C@]3(C(=O)Nc4ccccc43)[C@@H](C(=O)Nc3nc4ccccc4s3)[C@H]12,inactive,inactive,inactive
C[C@H](N)CCCP(=O)(O)O,inactive,inactive,inactive
C[C@@H]1CCCCO[C@@H](CN(C)C(=O)Cc2ccccc2)[C@H](C)CN([C@@H](C)CO)C(=O)c2cc(NC(=O)CCCCCC(=O)Nc3ccccc3N)ccc2O1,inactive,inactive,inactive
C[C@@H]1CN([C@@H](C)CO)C(=O)Cc2cc(NC(=O)CCN3CCOCC3)ccc2O[C@H]1CN(C)C(=O)NC1CCCCC1,inactive,inactive,inactive
C[C@@H]1CN([C@@H](C)CO)C(=O)c2cc(-c3ccc(C(=O)N(C)C)cc3)cnc2O[C@H]1CN(C)C(=O)c1cccnc1,inactive,inactive,inactive
CC(C)NC(=O)Nc1ccc2c(c1)C(=O)N([C@H](C)CO)C[C@@H](C)[C@H](CN(C)C(=O)Nc1ccc(C(F)(F)F)cc1)OCCCC[C@@H](C)O2,inactive,inactive,inactive
CC(=O)c1ccc(OCc2nnn(CC(=O)NS(=O)(=O)Cc3ccccc3)c2-c2ccccc2)cc1,inactive,inactive,inactive
Cc1ccc(S(=O)(=O)Nc2ccc3c(c2)C(=O)N([C@@H](C)CO)C[C@@H](C)[C@@H](CN(C)CC2CCCCC2)OCCCC[C@@H](C)O3)cc1,inactive,active,inactive
CCC(=O)N[C@@H]1C=C[C@H](CC(=O)OC)O[C@@H]1CO,inactive,inactive,inactive
COC(=O)c1c(C(=O)OC)c2n(c(=O)c1-c1ccccc1)[C@@H]1c3ccccc3O[C@@](COCc3ccc(OC)cc3)([C@@H]1COC(=O)c1ccccc1)N2C,inactive,inactive,inactive
